Source: the supplement of paper PMC8728848
Some of the results follow.

How the values were obtained:
Assay in all cases: glycan array binding signal (z-score within array); higher = stronger binding
Details in all cases: glycan notation: IUPAC condensed, linker removed
[1] = target: Gal(b1-3)GlcNAc(b1-6)GalNAc
In short: (§1)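 The Consortium for Functional Glycomics database supplied 3228 glycan arrays, of which those lacking an available protein sequence were dropped. The binding signal, a within-array Z-score, was averaged across arrays of the same protein sequence and across linkers. Negative scores can be read as non-binding.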

[2] = target: Gal(b1-3)GlcNAc(b1-6)[Gal(b1-3)]GalNAc
In short: as §1

Gal(b1-3)GlcNAc6S = target: Gal(b1-3)GlcNAc6S
In short: as §1

[3] = target: Gal(b1-3)[Fuc(a1-4)]GlcNAc
In short: as §1

[4] = target: Gal(b1-3)[Fuc(a1-4)]GlcNAc(b1-2)Man
In short: as §1

[5] = target: Gal(b1-3)[Fuc(a1-4)]GlcNAc(b1-2)Man(a1-3)[Gal(b1-3)[Fuc(a1-4)]GlcNAc(b1-2)Man(a1-6)]Man(b1-4)GlcNAc(b1-4)[Fuc(a1-6)]GlcNAc
In short: as §1

[6] = target: Gal(b1-3)[Fuc(a1-4)]GlcNAc(b1-3)Gal(b1-3)[Fuc(a1-4)]GlcNAc
In short: as §1

[7] = target: Gal(b1-3)[Fuc(a1-4)]GlcNAc(b1-3)Gal(b1-4)[Fuc(a1-3)]GlcNAc
In short: as §1

[8] = target: Gal(b1-3)[Fuc(a1-4)]GlcNAc(b1-6)GalNAc
In short: as §1

[9] = target: Gal(b1-3)[GlcNAc(b1-6)]GalNAc
In short: as §1

[10] = target: Gal(b1-3)[Neu5Ac(a2-6)]GalNAc
In short: as §1

[11] = target: Gal(b1-3)[Neu5Ac(a2-6)]GlcNAc(b1-4)Gal(b1-4)Glc
In short: as §1

[12] = target: Gal(b1-3)[Neu5Ac(b2-6)]GalNAc
In short: as §1

Gal(b1-4)Gal = target: Gal(b1-4)Gal
In short: as §1

[13] = target: Gal(b1-4)GalNAc(a1-3)[Fuc(a1-2)]Gal(b1-4)GlcNAc
In short: as §1

[14] = target: Gal(b1-4)GalNAc(b1-3)[Fuc(a1-2)]Gal(b1-4)GlcNAc
In short: as §1

Gal(b1-4)Glc = target: Gal(b1-4)Glc
In short: as §1

Gal(b1-4)Glc6S = target: Gal(b1-4)Glc6S
In short: as §1

Gal(b1-4)GlcNAc = target: Gal(b1-4)GlcNAc
In short: as §1

[15] = target: Gal(b1-4)GlcNAc(a1-6)Gal(b1-4)GlcNAc
In short: as §1

Gal(b1-4)GlcNAc(b1-2)Man = target: Gal(b1-4)GlcNAc(b1-2)Man
In short: as §1

[16] = target: Gal(b1-4)GlcNAc(b1-2)Man(a1-3)Man(b1-4)GlcNAc(b1-4)GlcNAc
In short: as §1

[17] = target: Gal(b1-4)GlcNAc(b1-2)Man(a1-3)[Gal(b1-4)GlcNAc(b1-2)Man(a1-6)]Man(b1-4)GlcNAc(b1-4)GlcNAc
In short: as §1

[18] = target: Gal(b1-4)GlcNAc(b1-2)Man(a1-3)[Gal(b1-4)GlcNAc(b1-2)Man(a1-6)]Man(b1-4)GlcNAc(b1-4)[Fuc(a1-6)]GlcNAc
In short: as §1

[19] = target: Gal(b1-4)GlcNAc(b1-2)Man(a1-3)[Gal(b1-4)GlcNAc(b1-2)Man(a1-6)][Gal(b1-4)GlcNAc(b1-4)]Man(b1-4)GlcNAc(b1-4)[Fuc(a1-6)]GlcNAc
In short: as §1

[20] = target: Gal(b1-4)GlcNAc(b1-2)Man(a1-3)[Gal(b1-4)GlcNAc(b1-2)Man(a1-6)][GlcNAc(b1-4)]Man(b1-4)GlcNAc(b1-4)[Fuc(a1-6)]GlcNAc
In short: as §1

[21] = target: Gal(b1-4)GlcNAc(b1-2)Man(a1-3)[GlcNAc(b1-2)Man(a1-6)]Man(b1-4)GlcNAc(b1-4)GlcNAc
In short: as §1

[22] = target: Gal(b1-4)GlcNAc(b1-2)Man(a1-3)[GlcNAc(b1-4)][Gal(b1-4)GlcNAc(b1-2)Man(a1-6)]Man(b1-4)GlcNAc(b1-4)GlcNAc
In short: as §1

[23] = target: Gal(b1-4)GlcNAc(b1-2)Man(a1-3)[Man(a1-6)]Man(b1-4)GlcNAc(b1-4)GlcNAc
In short: as §1

[24] = target: Gal(b1-4)GlcNAc(b1-2)Man(a1-6)Man(b1-4)GlcNAc(b1-4)GlcNAc
In short: as §1

[25] = target: Gal(b1-4)GlcNAc(b1-2)Man(a1-6)[GlcNAc(b1-2)Man(a1-3)]Man(b1-4)GlcNAc(b1-4)GlcNAc
In short: as §1

[26] = target: Gal(b1-4)GlcNAc(b1-2)Man(a1-6)[Man(a1-3)]Man(b1-4)GlcNAc(b1-4)GlcNAc
In short: as §1

[27] = target: Gal(b1-4)GlcNAc(b1-2)[Gal(b1-4)GlcNAc(b1-4)]Man(a1-3)[Gal(b1-4)GlcNAc(b1-2)Man(a1-6)]Man(b1-4)GlcNAc(b1-4)GlcNAc
In short: as §1

[28] = target: Gal(b1-4)GlcNAc(b1-2)[Gal(b1-4)GlcNAc(b1-4)]Man(a1-3)[Gal(b1-4)GlcNAc(b1-2)[Gal(b1-4)GlcNAc(b1-6)]Man(a1-6)]Man(b1-4)GlcNAc(b1-4)GlcNAc
In short: as §1

[29] = target: Gal(b1-4)GlcNAc(b1-2)[Gal(b1-4)GlcNAc(b1-4)]Man(a1-3)[GlcNAc(b1-4)][Gal(b1-4)GlcNAc(b1-2)Man(a1-6)]Man(b1-4)GlcNAc(b1-4)GlcNAc
In short: as §1

[30] = target: Gal(b1-4)GlcNAc(b1-2)[Gal(b1-4)GlcNAc(b1-4)]Man(a1-3)[GlcNAc(b1-4)][Gal(b1-4)GlcNAc(b1-2)[Gal(b1-4)GlcNAc(b1-6)]Man(a1-6)]Man(b1-4)GlcNAc(b1-4)GlcNAc
In short: as §1

[31] = target: Gal(b1-4)GlcNAc(b1-2)[Gal(b1-4)GlcNAc(b1-6)]Man(a1-6)[Gal(b1-4)GlcNAc(b1-2)Man(a1-3)]Man(b1-4)GlcNAc(b1-4)GlcNAc
In short: as §1

[32] = target: Gal(b1-4)GlcNAc(b1-2)[Gal(b1-4)GlcNAc(b1-6)]Man(a1-6)[Gal(b1-4)GlcNAc(b1-2)Man(a1-3)]Man(b1-4)GlcNAc(b1-4)[Fuc(a1-6)]GlcNAc
In short: as §1

[33] = target: Gal(b1-4)GlcNAc(b1-2)[Gal(b1-4)GlcNAc(b1-6)]Man(a1-6)[GlcNAc(b1-4)][Gal(b1-4)GlcNAc(b1-2)Man(a1-3)]Man(b1-4)GlcNAc(b1-4)GlcNAc
In short: as §1

[34] = target: Gal(b1-4)GlcNAc(b1-2)[Gal(b1-4)GlcNAc(b1-6)]Man(a1-6)[GlcNAc(b1-4)][Gal(b1-4)GlcNAc(b1-2)[Gal(b1-4)GlcNAc(b1-4)]Man(a1-3)]Man(b1-4)GlcNAc(b1-4)[Fuc(a1-6)]GlcNAc
In short: as §1

[35] = target: Gal(b1-4)GlcNAc(b1-3)Gal(b1-3)GalNAc
In short: as §1

[36] = target: Gal(b1-4)GlcNAc(b1-3)Gal(b1-3)GlcNAc
In short: as §1

[37] = target: Gal(b1-4)GlcNAc(b1-3)Gal(b1-4)Glc
In short: as §1

[38] = target: Gal(b1-4)GlcNAc(b1-3)Gal(b1-4)GlcNAc
In short: as §1

[39] = target: Gal(b1-4)GlcNAc(b1-3)Gal(b1-4)GlcNAc(b1-2)Man(a1-3)[Gal(b1-4)GlcNAc(b1-3)Gal(b1-4)GlcNAc(b1-2)Man(a1-6)]Man(b1-4)GlcNAc(b1-4)GlcNAc
In short: as §1

Binder: CTAEGIKKFEGDGYELFKDNFPAGEKFDNDDTNDQFYTVIF [MUB40 (Lactobacillus reuteri)]
- glycan array binding signal (z-score) [1]: -0.239
- glycan array binding signal (z-score) [2]: 0.634
- glycan array binding signal (z-score) (Gal(b1-3)GlcNAc6S): 0.047
- glycan array binding signal (z-score) [3]: -0.13
- glycan array binding signal (z-score) [4]: -0.308
- glycan array binding signal (z-score) [5]: -0.297
- glycan array binding signal (z-score) [6]: -0.394
- glycan array binding signal (z-score) [7]: -0.101
- glycan array binding signal (z-score) [8]: -0.329
- glycan array binding signal (z-score) [9]: -0.493
- glycan array binding signal (z-score) [10]: 0.004
- glycan array binding signal (z-score) [11]: -0.18
- glycan array binding signal (z-score) [12]: -0.4
- glycan array binding signal (z-score) (Gal(b1-4)Gal): -0.36
- glycan array binding signal (z-score) [13]: -0.324
- glycan array binding signal (z-score) [14]: -0.408
- glycan array binding signal (z-score) (Gal(b1-4)Glc): -0.052
- glycan array binding signal (z-score) (Gal(b1-4)Glc6S): 0.18
- glycan array binding signal (z-score) (Gal(b1-4)GlcNAc): -0.134
- glycan array binding signal (z-score) [15]: -0.17
- glycan array binding signal (z-score) (Gal(b1-4)GlcNAc(b1-2)Man): -0.368
- glycan array binding signal (z-score) [16]: 0.279
- glycan array binding signal (z-score) [17]: -0.183
- glycan array binding signal (z-score) [18]: -0.425
- glycan array binding signal (z-score) [19]: 0.207
- glycan array binding signal (z-score) [20]: 0.74
- glycan array binding signal (z-score) [21]: -0.422
- glycan array binding signal (z-score) [22]: -0.422
- glycan array binding signal (z-score) [23]: -0.331
- glycan array binding signal (z-score) [24]: -0.193
- glycan array binding signal (z-score) [25]: -0.102
- glycan array binding signal (z-score) [26]: -0.441
- glycan array binding signal (z-score) [27]: -0.293
- glycan array binding signal (z-score) [28]: -0.137
- glycan array binding signal (z-score) [29]: -0.358
- glycan array binding signal (z-score) [30]: -0.656
- glycan array binding signal (z-score) [31]: 0.618
- glycan array binding signal (z-score) [32]: 0.328
- glycan array binding signal (z-score) [33]: -0.272
- glycan array binding signal (z-score) [34]: -0.782
- glycan array binding signal (z-score) [35]: 1.59
- glycan array binding signal (z-score) [36]: 0.806
- glycan array binding signal (z-score) [37]: -0.492
- glycan array binding signal (z-score) [38]: 0.002
- glycan array binding signal (z-score) [39]: 0.708
